# Results from the supplement of paper PMC8728848.
# The other results are listed elsewhere or left out.
# Experiments:
# Experiment in all cases: glycan array binding signal (z-score within array); higher = stronger binding
# Conditions in all cases: glycan notation: IUPAC condensed, linker removed
# [1] = molecular target: GlcNAc(b1-2)[GlcNAc(b1-4)]Man(a1-3)[GlcNAc(b1-4)][GlcNAc(b1-2)[GlcNAc(b1-6)]Man(a1-6)]Man(b1-4)GlcNAc(b1-4)GlcNAc
# In short: (§1)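 Columns mapping to the same glycan were averaged after glycan names were converted to IUPAC-condensed notation. The data come from 3228 arrays in the Consortium for Functional Glycomics database, limited to those with an available protein sequence. Binding is reported as a within-array Z-score averaged across arrays of one protein sequence and across linkers.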
# [2] = molecular target: GlcNAc(b1-2)[GlcNAc(b1-4)]Man(a1-3)[GlcNAc(b1-4)][GlcNAc(b1-2)[GlcNAc(b1-6)]Man(a1-6)]Man(b1-4)GlcNAc(b1-4)[Fuc(a1-6)]GlcNAc
# In short: as §1
# [3] = molecular target: GlcNAc(b1-2)[GlcNAc(b1-6)]Man(a1-6)[GlcNAc(b1-2)Man(a1-3)]Man(b1-4)GlcNAc(b1-4)GlcNAc
# In short: as §1
# [4] = molecular target: GlcNAc(b1-2)[GlcNAc(b1-6)]Man(a1-6)[GlcNAc(b1-2)Man(a1-3)]Man(b1-4)GlcNAc(b1-4)[Fuc(a1-6)]GlcNAc
# In short: as §1
# [5] = molecular target: GlcNAc(b1-2)[GlcNAc(b1-6)]Man(a1-6)[GlcNAc(b1-4)][GlcNAc(b1-2)Man(a1-3)]Man(b1-4)GlcNAc(b1-4)GlcNAc
# In short: as §1
# GlcNAc(b1-3)Fuc = molecular target: GlcNAc(b1-3)Fuc
# In short: as §1
# GlcNAc(b1-3)Gal = molecular target: GlcNAc(b1-3)Gal
# In short: as §1
# [6] = molecular target: GlcNAc(b1-3)Gal(b1-3)GalNAc
# In short: as §1
# GlcNAc(b1-3)Gal(b1-4)Glc = molecular target: GlcNAc(b1-3)Gal(b1-4)Glc
# In short: as §1
# [7] = molecular target: GlcNAc(b1-3)Gal(b1-4)GlcNAc
# In short: as §1
# [8] = molecular target: GlcNAc(b1-3)Gal(b1-4)GlcNAc(b1-2)Man(a1-3)[GlcNAc(b1-3)Gal(b1-4)GlcNAc(b1-2)Man(a1-6)]Man(b1-4)GlcNAc(b1-4)GlcNAc
# In short: as §1
# [9] = molecular target: GlcNAc(b1-3)Gal(b1-4)GlcNAc(b1-2)Man(a1-3)[GlcNAc(b1-3)Gal(b1-4)GlcNAc(b1-2)Man(a1-6)]Man(b1-4)GlcNAc(b1-4)[Fuc(a1-6)]GlcNAc
# In short: as §1
# [10] = molecular target: GlcNAc(b1-3)Gal(b1-4)GlcNAc(b1-2)[GlcNAc(b1-3)Gal(b1-4)GlcNAc(b1-6)]Man(a1-6)[GlcNAc(b1-3)Gal(b1-4)GlcNAc(b1-2)Man(a1-3)]Man(b1-4)GlcNAc(b1-4)GlcNAc
# In short: as §1
# [11] = molecular target: GlcNAc(b1-3)Gal(b1-4)GlcNAc(b1-3)Gal(b1-4)GlcNAc
# In short: as §1
# [12] = molecular target: GlcNAc(b1-3)Gal(b1-4)GlcNAc(b1-3)Gal(b1-4)GlcNAc(b1-2)Man(a1-3)[GlcNAc(b1-3)Gal(b1-4)GlcNAc(b1-3)Gal(b1-4)GlcNAc(b1-2)Man(a1-6)]Man(b1-4)GlcNAc(b1-4)GlcNAc
# In short: as §1
# [13] = molecular target: GlcNAc(b1-3)Gal(b1-4)GlcNAc(b1-3)Gal(b1-4)GlcNAc(b1-2)Man(a1-3)[GlcNAc(b1-3)Gal(b1-4)GlcNAc(b1-3)Gal(b1-4)GlcNAc(b1-2)Man(a1-6)]Man(b1-4)GlcNAc(b1-4)[Fuc(a1-6)]GlcNAc
# In short: as §1
# [14] = molecular target: GlcNAc(b1-3)Gal(b1-4)GlcNAc(b1-3)Gal(b1-4)GlcNAc(b1-2)[GlcNAc(b1-3)Gal(b1-4)GlcNAc(b1-3)Gal(b1-4)GlcNAc(b1-6)]Man(a1-6)[GlcNAc(b1-3)Gal(b1-4)GlcNAc(b1-3)Gal(b1-4)GlcNAc(b1-2)Man(a1-3)]Man(b1-4)GlcNAc(b1-4)[Fuc(a1-6)]GlcNAc
# In short: as §1
# [15] = molecular target: GlcNAc(b1-3)Gal(b1-4)GlcNAc(b1-3)Gal(b1-4)GlcNAc(b1-3)Gal(b1-4)GlcNAc(b1-2)Man(a1-3)[GlcNAc(b1-3)Gal(b1-4)GlcNAc(b1-3)Gal(b1-4)GlcNAc(b1-3)Gal(b1-4)GlcNAc(b1-2)Man(a1-6)]Man(b1-4)GlcNAc(b1-4)GlcNAc
# In short: as §1
# [16] = molecular target: GlcNAc(b1-3)Gal(b1-4)GlcNAc(b1-3)Gal(b1-4)GlcNAc(b1-3)Gal(b1-4)GlcNAc(b1-2)Man(a1-3)[GlcNAc(b1-3)Gal(b1-4)GlcNAc(b1-3)Gal(b1-4)GlcNAc(b1-3)Gal(b1-4)GlcNAc(b1-2)Man(a1-6)]Man(b1-4)GlcNAc(b1-4)[Fuc(a1-6)]GlcNAc
# In short: as §1
# [17] = molecular target: GlcNAc(b1-3)Gal(b1-4)GlcNAc(b1-3)Gal(b1-4)GlcNAc(b1-3)Gal(b1-4)GlcNAc(b1-2)[GlcNAc(b1-3)Gal(b1-4)GlcNAc(b1-3)Gal(b1-4)GlcNAc(b1-3)Gal(b1-4)GlcNAc(b1-6)]Man(a1-6)[GlcNAc(b1-3)Gal(b1-4)GlcNAc(b1-3)Gal(b1-4)GlcNAc(b1-3)Gal(b1-4)GlcNAc(b1-2)Man(a1-3)]Man(b1-4)GlcNAc(b1-4)[Fuc(a1-6)]GlcNAc
# In short: as §1
# [18] = molecular target: GlcNAc(b1-3)Gal(b1-4)GlcNAc(b1-3)Gal(b1-4)GlcNAc(b1-3)Gal(b1-4)GlcNAc(b1-3)Gal(b1-4)GlcNAc(b1-2)Man(a1-3)[GlcNAc(b1-3)Gal(b1-4)GlcNAc(b1-3)Gal(b1-4)GlcNAc(b1-3)Gal(b1-4)GlcNAc(b1-3)Gal(b1-4)GlcNAc(b1-2)Man(a1-6)]Man(b1-4)GlcNAc(b1-4)GlcNAc
# In short: as §1
# [19] = molecular target: GlcNAc(b1-3)Gal(b1-4)GlcNAc(b1-3)Gal(b1-4)GlcNAc(b1-3)Gal(b1-4)GlcNAc(b1-3)Gal(b1-4)GlcNAc(b1-2)Man(a1-3)[GlcNAc(b1-3)Gal(b1-4)GlcNAc(b1-3)Gal(b1-4)GlcNAc(b1-3)Gal(b1-4)GlcNAc(b1-3)Gal(b1-4)GlcNAc(b1-2)Man(a1-6)]Man(b1-4)GlcNAc(b1-4)[Fuc(a1-6)]GlcNAc
# In short: as §1
# [20] = molecular target: GlcNAc(b1-3)Gal(b1-4)GlcNAc(b1-3)Gal(b1-4)GlcNAc(b1-3)Gal(b1-4)GlcNAc(b1-3)Gal(b1-4)GlcNAc(b1-2)[GlcNAc(b1-3)Gal(b1-4)GlcNAc(b1-3)Gal(b1-4)GlcNAc(b1-3)Gal(b1-4)GlcNAc(b1-3)Gal(b1-4)GlcNAc(b1-6)]Man(a1-6)[GlcNAc(b1-3)Gal(b1-4)GlcNAc(b1-3)Gal(b1-4)GlcNAc(b1-3)Gal(b1-4)GlcNAc(b1-3)Gal(b1-4)GlcNAc(b1-2)Man(a1-3)]Man(b1-4)GlcNAc(b1-4)[Fuc(a1-6)]GlcNAc
# In short: as §1
# [21] = molecular target: GlcNAc(b1-3)Gal(b1-4)GlcNAc(b1-3)Gal(b1-4)GlcNAc(b1-3)GalNAc
# In short: as §1
# [22] = molecular target: GlcNAc(b1-3)Gal(b1-4)GlcNAc(b1-3)GalNAc
# In short: as §1
# [23] = molecular target: GlcNAc(b1-3)Gal(b1-4)GlcNAc(b1-3)[GlcNAc(b1-3)Gal(b1-4)GlcNAc(b1-3)]GalNAc
# In short: as §1
# [24] = molecular target: GlcNAc(b1-3)Gal(b1-4)GlcNAc(b1-6)[Gal(b1-3)]GalNAc
# In short: as §1
# [25] = molecular target: GlcNAc(b1-3)Gal(b1-4)GlcNAc(b1-6)[GlcNAc(b1-3)Gal(b1-3)]GalNAc
# In short: as §1
# [26] = molecular target: GlcNAc(b1-3)Gal(b1-4)GlcNAc(b1-6)[GlcNAc(b1-3)]Gal(b1-4)GlcNAc
# In short: as §1
# GlcNAc(b1-3)GalNAc = molecular target: GlcNAc(b1-3)GalNAc
# In short: as §1
# GlcNAc(b1-3)Man = molecular target: GlcNAc(b1-3)Man
# In short: as §1
# [27] = molecular target: GlcNAc(b1-3)[GlcNAc(b1-4)][GlcNAc(b1-6)]GlcNAc
# In short: as §1
# [28] = molecular target: GlcNAc(b1-3)[GlcNAc(b1-6)]Gal(b1-4)GlcNAc
# In short: as §1
# [29] = molecular target: GlcNAc(b1-3)[GlcNAc(b1-6)]GalNAc
# In short: as §1
# [30] = molecular target: GlcNAc(b1-4)Gal(b1-4)GlcNAc
# In short: as §1
# GlcNAc(b1-4)GlcNAc = molecular target: GlcNAc(b1-4)GlcNAc
# In short: as §1
# [31] = molecular target: GlcNAc(b1-4)GlcNAc(b1-4)GlcNAc
# In short: as §1
# [32] = molecular target: GlcNAc(b1-4)GlcNAc(b1-4)GlcNAc(b1-4)GlcNAc(b1-4)GlcNAc
# In short: as §1
binder,measurement,setting,value
Clec49 (Caenorhabditis elegans) (protein) MTRLTLLLFGLLGAATAQTCNTGGIYNEQFNRCYQYFTAPAQFSFAEQQCNLLGGHLASVQNGQENALLQSNAANSFKRSNYSDYWIGATDLETSGTWKWTDPSVTFDYSNWQLGEPQSGSDCAIQDKGDGTWSAIGCTSYRPYVCVTPVIMTATCPPITTPIPTTCPTPAPCPIKQCVPSCDQGWTYFSPTDFCYRVYHGEKFNDAEASCVLLGGHLASIHSLTENTFVNNIASCGIKEGKYEHLAWIGMRKVGQDWVWTDGTPSDYFNWAPKQPDNPKKELCVQTAPDLSHDKWYENWNNLECNEVMRAYICKKASIHN,glycan array binding signal (z-score),[1],-0.524
same,glycan array binding signal (z-score),[2],-0.199
same,glycan array binding signal (z-score),[3],-0.538
same,glycan array binding signal (z-score),[4],0.48
same,glycan array binding signal (z-score),[5],-0.535
same,glycan array binding signal (z-score),GlcNAc(b1-3)Fuc,0.199
same,glycan array binding signal (z-score),GlcNAc(b1-3)Gal,-0.154
same,glycan array binding signal (z-score),[6],-0.193
same,glycan array binding signal (z-score),GlcNAc(b1-3)Gal(b1-4)Glc,-0.208
same,glycan array binding signal (z-score),[7],-0.356
same,glycan array binding signal (z-score),[8],0.144
same,glycan array binding signal (z-score),[9],0.489
same,glycan array binding signal (z-score),[10],0.43
same,glycan array binding signal (z-score),[11],-0.387
same,glycan array binding signal (z-score),[12],1.3
same,glycan array binding signal (z-score),[13],0.581
same,glycan array binding signal (z-score),[14],0.206
same,glycan array binding signal (z-score),[15],-0.295
same,glycan array binding signal (z-score),[16],-0.119
same,glycan array binding signal (z-score),[17],0.571
same,glycan array binding signal (z-score),[18],-0.429
same,glycan array binding signal (z-score),[19],0.13
same,glycan array binding signal (z-score),[20],0.694
same,glycan array binding signal (z-score),[21],-0.473
same,glycan array binding signal (z-score),[22],1.09
same,glycan array binding signal (z-score),[23],0.912
same,glycan array binding signal (z-score),[24],0.25
same,glycan array binding signal (z-score),[25],-0.572
same,glycan array binding signal (z-score),[26],-0.374
same,glycan array binding signal (z-score),GlcNAc(b1-3)GalNAc,-0.399
same,glycan array binding signal (z-score),GlcNAc(b1-3)Man,-0.366
same,glycan array binding signal (z-score),[27],0.48
same,glycan array binding signal (z-score),[28],-0.239
same,glycan array binding signal (z-score),[29],-0.61
same,glycan array binding signal (z-score),[30],0.877
same,glycan array binding signal (z-score),GlcNAc(b1-4)GlcNAc,-0.318
same,glycan array binding signal (z-score),[31],-0.108
same,glycan array binding signal (z-score),[32],-0.408
